# Data taken from PubChem BioAssay AID360 (National Center for Advancing Translational Sciences (NCATS), 2006).
# In all, about 48,000 compounds went through this assay and about 550 (1.1%) were called active. Roughly 4% stayed inconclusive and do not appear here. Cut-off read from the data, not from the text of the source: active = potency below about 15 µM; inconclusive = mostly about 16 µM to 33 µM; inactive = weaker than that. The list shows a part of the results.
# Molecular target: Lysosomal acid glucosylceramidase (Homo sapiens) (UniProt P04062)
# Assay: Glucocerebrosidase;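 note: the screen sought inhibitors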
# Conditions: purified enzyme, resorufin glucoside fluorescence (screen aimed at inhibitors), 20 min
# Procedure, shortened: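 Wild-type enzyme at 0.2 nM final in 50mM citric acid/KH2PO4, 10mM sodium taurocholate, 0.01% tween-20, pH 5.9, with resorufin beta-D-glucopyranoside at 30 uM final. Compounds titrated, 20 min at RT, red fluorescence read; AC50 from titration.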
# Potency is the fitted concentration of half-maximal effect.
# Sequence of UniProt P04062 (P04062 whole entry, looked up): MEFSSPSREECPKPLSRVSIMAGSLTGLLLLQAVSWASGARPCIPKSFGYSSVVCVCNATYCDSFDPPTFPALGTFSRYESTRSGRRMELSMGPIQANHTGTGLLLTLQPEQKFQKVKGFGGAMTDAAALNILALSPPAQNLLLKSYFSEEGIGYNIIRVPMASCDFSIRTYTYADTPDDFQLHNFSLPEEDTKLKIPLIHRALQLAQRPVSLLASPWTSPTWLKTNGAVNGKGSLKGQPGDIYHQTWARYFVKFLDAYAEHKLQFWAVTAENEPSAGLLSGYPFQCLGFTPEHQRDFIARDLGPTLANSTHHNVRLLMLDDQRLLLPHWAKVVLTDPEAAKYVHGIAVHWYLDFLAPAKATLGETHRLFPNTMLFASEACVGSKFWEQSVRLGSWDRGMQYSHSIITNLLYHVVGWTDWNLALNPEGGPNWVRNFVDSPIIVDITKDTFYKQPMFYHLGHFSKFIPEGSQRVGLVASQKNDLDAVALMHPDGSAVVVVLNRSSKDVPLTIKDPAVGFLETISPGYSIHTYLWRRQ
row,Structure (SMILES),Potency
1,CC(=O)c1ccc(NC(=O)N[C@@H](CC(C)C)C(=O)O)cc1,inactive: > 76.9 µM
2,COc1ccc(C2C(C(C)=O)=C(O)C(=O)N2CCCn2ccnc2)cc1OC (stereo not drawn),inactive: > 76.9 µM
3,CCc1cc2cc3c(cc2nc1SCC(=O)N1CCN(C(=O)c2ccco2)CC1)OCO3,inactive: > 76.9 µM
4,Cc1ccc(C(C)C)c(OCC(=O)Nc2ccccc2N2CCN(C)CC2)c1,inactive
5,Cc1cc2c(=O)n(CC(=O)NCC(=O)N3CCN(Cc4ccccc4)CC3)cnc2s1,inactive: > 76.9 µM
6,CC(=O)NC(Cc1ccccc1)C(=O)O (stereo not drawn),inactive: > 76.9 µM
7,CCCn1c(SCC(=O)NCC2CCCO2)nc2c1c(=O)n(C)c(=O)n2C (stereo not drawn),inactive: > 76.9 µM
8,CC(C)C(=O)Nc1cccc(C(=O)NCc2ccc(S(N)(=O)=O)cc2)c1,inactive: > 76.9 µM
9,CCOC(=O)C1CCN(C2CC(=O)N(c3ccc(OCC)cc3)C2=O)CC1 (stereo not drawn),inactive: > 76.9 µM
10,CCc1nc2ccccc2n1CC(=O)N1CCN(S(=O)(=O)c2cccc(C(F)(F)F)c2)CC1,inactive
11,COC(=O)c1nnn(CC(=O)Nc2cc(Cl)ccc2C)c1C(=O)OC,inactive: > 76.9 µM
12,COc1ccc(N2CCN(CCNC(=O)c3c(C)cc(=O)oc3C)CC2)cc1,inactive: > 76.9 µM
13,CCOC(=O)COc1ccc(S(=O)(=O)N2CCN(c3ccccc3F)CC2)cc1,inactive: > 76.9 µM
14,CCOc1ccc(C(=O)N2CCCCCC2)cc1,inactive: > 76.9 µM
15,O=C(CN1C(=O)CSc2ccccc21)Nc1ccccc1C(=O)N1CCOCC1,inactive: > 76.9 µM
16,COc1ccc(-c2nnn(CC(=O)N(Cc3cccs3)C(C)C(=O)NC3CCCC3)n2)cc1OC (stereo not drawn),inactive: > 76.9 µM
17,NS(=O)(=O)c1ccc(CCNC(=O)NC2(C(F)(F)F)Oc3ccccc3O2)cc1,active: 13.6 µM
18,C(=C\c1ccccc1)/CN1CCN(c2ncnc3c2oc2ccccc23)CC1,inactive: > 76.9 µM
19,CC(C)(C)n1ncc2c(=O)n(CC(=O)N3CCCc4ccccc43)cnc21,inactive: > 76.9 µM
20,CCNc1nc(Oc2ccc(C(=O)OC)cc2)nc(N(C)C)n1,inactive: > 76.9 µM
21,O=C1c2cccnc2C(=O)N1CO,inactive: > 76.9 µM
22,COC(=O)CSc1nnnn1-c1ccccc1,inactive: > 76.9 µM

row,Structure (SMILES),Potency
1,C=CCOC(=O)Nc1c(C(=O)OC)[nH]c2ccccc12,inactive: > 76.9 µM
2,Cc1cccn2c(=O)c3cc(C(=O)NCc4ccco4)c(=N)n(C(C)C)c3nc12,inactive: > 76.9 µM
3,CCOC(=O)C1CCN(C(=O)CN(Cc2ccc(Cl)cc2)S(C)(=O)=O)CC1,inactive: > 76.9 µM
4,CC1CCCN(CCCNC(=O)C2CC(=O)N(c3ccc(F)c(Cl)c3)C2)C1 (stereo not drawn),inactive: > 76.9 µM
5,CCCn1cnc2c(cnn2-c2ccc(F)cc2)c1=O,inactive: > 76.9 µM
6,O=C(O)c1cc(NCc2cccs2)ccc1N1CCOCC1,inactive: > 76.9 µM
7,COc1ccc(S(=O)(=O)Nc2ccccn2)c(C)c1C,inactive: > 76.9 µM
8,CCCNS(=O)(=O)c1ccc(CCC(=O)NCc2ccc3c(c2)OCO3)cc1,inactive: > 76.9 µM
9,Cn1c(SCC(=O)NCc2ccco2)nnc1-c1cccs1,inactive: > 76.9 µM
10,COc1ccc(OC)c(NC(=O)C2CCN(c3cc(-c4ccccc4)nc4ncnn34)CC2)c1,inactive: > 76.9 µM
11,O=C(Nc1cnc2ccccc2c1)c1cccc(-n2cnnn2)c1,inactive: > 76.9 µM
12,CCCCC(=O)Nc1ccc(C(=O)Nc2ccc3c(c2)OCO3)cc1,inactive: > 76.9 µM
13,Clc1ccc(-n2cnnn2)cc1,inactive: > 76.9 µM
14,O=Nc1c2nc3ccccc3n(O)c-2c2ccccc12,inactive: > 76.9 µM
15,Fc1ccc(C(c2nnnn2Cc2cccs2)N2CCN(C3CCCCC3)CC2)cc1 (stereo not drawn),inactive: > 76.9 µM
16,COc1ccc2c(c1)c(=O)cc(C)n2CC(=O)NCc1ccco1,inactive: > 76.9 µM
17,CCCn1c(=C(C#N)C#N)s/c(=C2\C=Cc3ccccc3N2CC)c1=O,inactive: > 76.9 µM
18,Cc1ccc(N(C(C)C(=O)Nc2ccc(S(=O)(=O)N3CCOCC3)cc2)S(C)(=O)=O)cc1C (stereo not drawn),inactive: > 76.9 µM
19,O=C(CN1CCN(c2ccc(F)cc2)CC1)N1CCC(Cc2ccccc2)CC1,inactive: > 76.9 µM
20,Cc1ccn(S(=O)(=O)c2ccc(C(C)(C)C)cc2)n1,inactive: > 76.9 µM
21,Cc1ccc(C(=O)NCC(=O)OCC(=O)c2c(N)n(C)c(=O)n(C)c2=O)s1,inactive: > 76.9 µM
22,CCOC(=O)c1ccc(N2C(=O)CC(C(=O)OC)=C2C)cc1,inactive: > 76.9 µM

row,Structure (SMILES),Potency
1,O=S(=O)(c1cccc(S(=O)(=O)N2CCN(c3ncccn3)CC2)c1)N1CCOCC1,inactive: > 76.9 µM
2,CC(=O)Nc1ccc(S(=O)(=O)N2CCSC2c2ccccc2)cc1 (stereo not drawn),inactive: > 76.9 µM
3,CC(C)(C)OC(=O)N1CCN(c2ccc(NC(=O)Cn3nnc(-c4ccccc4)n3)cc2)CC1,inactive: > 76.9 µM
4,Cc1ccc(S(=O)(=O)NC2=NCN(C3CCCCC3)CN2)cc1,inactive: > 76.9 µM
5,Cc1ccc(NC(=O)CSc2nnc(-c3ccccc3Br)o2)cc1C,inactive: > 76.9 µM
6,O=C(CN1CCN(c2ccc(Cl)cc2)CC1)Nc1cccc(F)c1,inactive: > 76.9 µM
7,Cc1c(C(=O)NCc2ccccn2)sc2nc(-c3ccc(F)cc3)cn12,inactive: > 76.9 µM
8,O=S(=O)(N1CCOCC1)N1CCCN(S(=O)(=O)N2CCOCC2)CC1,inactive: > 76.9 µM
9,N#CC(C(=O)OCc1ccccc1)c1nc2ccccc2nc1N1CCOCC1 (stereo not drawn),inactive: > 76.9 µM
10,CCOc1ccc(-n2c(=O)c3c(C)c(C)sc3n(CC(=O)NCc3ccco3)c2=O)cc1,inactive: > 76.9 µM
11,O=C(Nc1ccc2c(c1)OCO2)C1CC(c2c(F)cccc2Cl)=NO1 (stereo not drawn),inactive: > 76.9 µM
12,CCCCNC(=O)c1ccc(CS(=O)(=O)c2cccc(C(F)(F)F)c2)o1,inactive: > 76.9 µM
13,O=C(CN1CCCN(Cc2ccc(F)cc2Cl)C1=O)NCc1ccccc1,inactive: > 76.9 µM
14,CCCOc1ccc(NC(=O)C2CC(=O)N(C(C)C)C2)cc1 (stereo not drawn),inactive: > 76.9 µM
15,C=CCC1c2cccc(C(=O)O)c2C(=O)N1c1cccc(C)c1 (stereo not drawn),inactive: > 76.9 µM
16,Cc1ccccc1Nc1nc(N)nc(CN2CCN(c3ccccn3)CC2)n1,inactive
17,CCOC(=O)c1[nH]c(C)c(/C(O)=C2\C(=O)C(=O)N(CCCN(C)C)C2c2cccnc2)c1C (stereo not drawn),inactive: > 76.9 µM
18,O=C(c1ccco1)N1CCN(C(=O)C(Cc2ccccc2)NS(=O)(=O)c2cccs2)CC1 (stereo not drawn),inactive: > 76.9 µM
19,COc1ccc(NC(=O)CN2CCN(CC(=O)Nc3ccc(OC)c(OC)c3)CC2)cc1,inactive: > 76.9 µM
20,CCOc1ccc(-c2nnn(CC(=O)Nc3cc(OC)ccc3OC)n2)cc1OCC,inactive: > 76.9 µM
21,CCOc1ccc(CCNC(=O)CN(C)S(=O)(=O)c2cccc3nsnc23)cc1OCC,inactive: > 76.9 µM
22,COc1ccc(NC(=O)c2ccc(COc3ccccc3Br)o2)cc1OC,inactive: > 76.9 µM

row,Structure (SMILES),Potency
1,CC(C)OC(=O)CSc1nnc(-c2cnccn2)n1Cc1ccco1,inactive: > 76.9 µM
2,Cc1cc(NC(=O)CSc2ccc3nnc(-c4ccccc4)n3n2)no1,inactive: > 76.9 µM
3,c1ccc2[nH]c(CSc3nnc(-c4ccncc4)o3)nc2c1,inactive: > 76.9 µM
4,CC(C)C(=O)Nc1ccc(N2CCN(C(=O)c3cccs3)CC2)cc1,inactive: > 76.9 µM
5,Cc1cc(C)n2nc(C(=O)Nc3ccccc3N3CCOCC3)nc2n1,inactive: > 76.9 µM
6,COc1ccc(CN2C(=O)CCC2(C)C(=O)NCc2cccnc2)c(OC)c1 (stereo not drawn),inactive: > 76.9 µM
7,COc1[nH]c(/N=C/c2ccccc2)c(C#N)c1C#N,inactive: > 76.9 µM
8,O=C(c1ccccc1)C1C(=O)c2ccccc2C1=O,inactive: > 76.9 µM
9,COc1ccc(-n2c(CNC(=O)c3ccc(S(=O)(=O)N4CCCC4)cc3)n[nH]c2=S)cc1,inactive: > 76.9 µM
10,CCOC(=O)N1CCC(NCCNC(=O)c2ccccc2Cl)CC1,inactive: > 76.9 µM
11,COC(=O)c1cc(Br)c(=O)n(-c2ccccn2)c1,inactive: > 76.9 µM
12,O=S(=O)(NC1=NCCCCCC1)c1cccs1,inactive: > 76.9 µM
13,COC(=O)C1=C(N)OC2=C(C(=O)CC(C)(C)C2)C1c1ccoc1 (stereo not drawn),inactive: > 76.9 µM
14,COc1ccccc1N1CCN(C(=O)CSc2nc(-c3ccco3)cc(C(F)(F)F)n2)CC1,inactive: > 76.9 µM
15,COC(=O)C1CCN(C(=O)c2ccc(SC)cc2OC)CC1,inactive: > 76.9 µM
16,COc1ccc(C(=O)N2CCCC2)cc1S(=O)(=O)N1CCOCC1,inactive: > 76.9 µM
17,Cc1oc(C)c(C(=O)O)c1COc1ccc(C(=O)O)cc1,inactive: > 76.9 µM
18,C=CCN1C(=O)C2C(C(=O)NC)C3(C)C=CC2(O3)C1C(=O)NCc1ccc(OC)cc1 (stereo not drawn),inactive: > 76.9 µM
19,Cc1ccccc1-c1nnc2s/c(=C\c3ccc(N(C)C)cc3)c(=O)n12,inactive: > 76.9 µM
20,CCOc1ccccc1C1C(C(=O)OC)=CN(C)C=C1C(=O)OC,inactive: > 76.9 µM
21,C=CCSc1nnc(NC(=O)c2ccc(S(=O)(=O)NCC3CCCO3)cc2)s1 (stereo not drawn),inactive: > 76.9 µM
22,O=C(CN1CCOCC1)N1CCCc2c1c(=O)oc1ccc(OCc3ccccc3)cc21,inactive: > 76.9 µM
